From the supplement of paper PMC9446081
The whole screen tested about 39,000 compounds, of which about 220 (0.56%) showed activity. Some of the results follow.
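Also: static incubation at 37 °C against the wild-type strain, values averaged over two biological replicates.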

These compounds were tested on Escherichia coli K-12 BW25113 (assay: relative growth (OD600 normalised to plate interquartile mean) (fraction); higher = less growth inhibition, active = 0.2 or less). Conditions: 50 µM; LB; incubation time: overnight (16-24 h).
In the case of `C[C@H]1CN([C@@H](C)CO)C(=O)c2cccc(NC(=O)Nc3ccccc3)c2O[C@@H]1CN(C)Cc1ccc(C(F)(F)F)cc1`, the relative growth is reported as inactive: 0.821. For `COc1cccc(NC(=O)N(C)C[C@H]2Oc3cc(C#CC4(O)CCCC4)ccc3S(=O)(=O)N([C@H](C)CO)C[C@H]2C)c1`, the relative growth was inactive: 1. For `CC(C)CNc1nc(=O)cn[nH]1`, the relative growth was inactive: 1.01. With `COc1cc2c(cc1OC)CN(CCc1ccc(NC(=O)c3cccc4c(=O)c5cccc(OC)c5[nH]c34)cc1)CC2` the relative growth was inactive: 0.945. `CC(C)n1c(C=CC(O)CC(O)CC(=O)[O-])c(-c2ccc(F)cc2)c2ccccc21.[Na+]` (centres undefined) was tested, and the relative growth was inactive: 1.19. With `C[C@@H]1CN([C@@H](C)CO)C(=O)CCCn2cc(nn2)CO[C@H]1CN(C)C(=O)Nc1ccc2c(c1)OCO2` the relative growth was inactive: 1. `CCCNC(=O)N1C[C@]2(CN(C2)S(=O)(=O)c2ccccc2)c2c(n(c3cc(ccc23)OC)C)[C@@H]1CO` was tested, and the relative growth was inactive: 0.999. For `C[C@H]1CCCCO[C@H](CN(C)Cc2ccc(Cl)c(Cl)c2)[C@@H](C)CN([C@@H](C)CO)C(=O)c2cc(NC(=O)Nc3ccc(C(F)(F)F)cc3)ccc2O1`, the relative growth was inactive: 1. For `C[C@H]1CN([C@@H](C)CO)C(=O)c2cc(N(C)C)ccc2O[C@@H]1CN(C)S(C)(=O)=O`, the relative growth was inactive: 0.98. In the case of `N[C@@H](CCc1ccccc1Cl)c1ccc2c(c1)OCCO2`, the relative growth is reported as inactive: 0.957. In the case of `C[C@H]1CN([C@@H](C)CO)C(=O)c2cc(NC(=O)Nc3ccc4c(c3)OCO4)ccc2O[C@@H]1CN(C)Cc1ccc(Cl)c(Cl)c1`, the relative growth is reported as inactive: 0.985. For `C=CC(C)(O)CCC=C(C)C` (centres undefined), the relative growth was inactive: 1.07. In the case of `C[C@H]1CN([C@@H](C)CO)C(=O)c2cc(NS(=O)(=O)c3cccs3)ccc2O[C@@H]1CN(C)Cc1ccc(Cl)c(Cl)c1`, the relative growth is reported as inactive: 0.995. With `CC(=O)N[C@H]1[C@H](O[C@@H]2[C@@H](O)[C@H](C)O[C@@H](Oc3ccc4c(=O)c(-c5ccc(O)cc5)coc4c3)[C@@H]2O)O[C@H](CO)[C@@H](O[C@@H]2O[C@@H](C)[C@H](O)[C@@H](O)[C@H]2O)[C@@H]1O` the relative growth was inactive: 0.994. With `C[C@@H]1CN([C@@H](C)CO)C(=O)c2cc(NC(=O)Cc3ccccc3)ccc2O[C@@H](C)CCCCO[C@H]1CN(C)Cc1ccc(C(=O)O)cc1` the relative growth was inactive: 0.978. For `COc1ccc2c3c(n(c2c1)C)[C@@H](CO)N(C[C@]13CN(C1)C(=O)C)C(=O)CN1CCOCC1`, the relative growth was inactive: 0.995. For `O=C(C[C@@H]1CC[C@@H]2[C@H](COC[C@@H](O)CN2S(=O)(=O)c2ccccc2)O1)NCc1ccc2c(c1)OCO2`, the relative growth was inactive: 1.03. For `C(=C\[C@@H]1Nc2ccccc2-c2nc3ccccc3n21)/c1ccccc1`, the relative growth was inactive: 0.985. For `CC(C)NC(=O)N(C)C[C@H]1Oc2ccc(NC(=O)Cc3ccccc3)cc2C(=O)N([C@@H](C)CO)C[C@H]1C`, the relative growth was inactive: 0.993. For `C[C@@H]1CN([C@H](C)CO)S(=O)(=O)c2ccc(-c3cccc(C#N)c3)cc2O[C@H]1CN(C)C(=O)c1ccncc1`, the relative growth was inactive: 1.05. In the case of `COCCOC(=O)N1C(=O)[C@@]2(c3cc(C#CCNC(N)=O)ccc31)[C@H](C(=O)N1CCCCCCC1)[C@H]1C(=O)O[C@H](c3ccccc3)[C@H](c3ccccc3)N1[C@@H]2c1ccc(O)cc1`, the relative growth is reported as inactive: 1.05. With `C[C@@H]1CN([C@@H](C)CO)C(=O)c2cc(NC(=O)Nc3ccc4c(c3)OCO4)ccc2O[C@@H](C)CCCCO[C@H]1CN(C)C(=O)c1ccccc1` the relative growth was inactive: 1.01. With `CS(=O)(=O)N1CCC2(CC1)OCCO2` the relative growth was inactive: 1.08. For `C[C@@H]1CN([C@@H](C)CO)C(=O)Cc2cc(NS(=O)(=O)c3cn(C)cn3)ccc2O[C@H]1CN(C)C(=O)Nc1ccc2c(c1)OCO2`, the relative growth was inactive: 0.988. `COC(=O)[C@@H](C)N(C#N)c1nc(C)nc(C)n1` was tested, and the relative growth was inactive: 1.01. `C[C@@H]1CCCCO[C@@H](CN(C)C(=O)Nc2cccc3ccccc23)[C@H](C)CN([C@@H](C)CO)C(=O)c2cc(NS(=O)(=O)c3ccc(F)cc3)ccc2O1` was tested, and the relative growth was inactive: 1.02. `NC(=O)CC[C@H](N)C(=O)O` was tested, and the relative growth was inactive: 0.974. For `O=C(/C=C/c1ccccc1)c1ccc(O[C@@H]2O[C@H](CO)[C@@H](O)[C@H](O)[C@H]2O)cc1O`, the relative growth was inactive: 0.999. For `C[C@@H]1CN([C@@H](C)CO)C(=O)c2cc(NC(=O)Cc3ccccc3)ccc2O[C@@H](C)CCCCO[C@H]1CN(C)Cc1ccncc1`, the relative growth was inactive: 0.994. `C[C@H](CO)N1C[C@H](C)[C@@H](CN(C)C(=O)Nc2cccc3ccccc23)Oc2ccc(NC(=O)CCC(F)(F)F)cc2C1=O` was tested, and the relative growth was inactive: 1. `C[C@H]1CCCCO[C@H](CN(C)Cc2ccc(Cl)c(Cl)c2)[C@@H](C)CN([C@@H](C)CO)C(=O)c2cc(NC(=O)Nc3cccc4ccccc34)ccc2O1` was tested, and the relative growth was inactive: 1.01. `C[C@@H]1CN([C@@H](C)CO)S(=O)(=O)c2ccc(C#CCC3CCCC3)cc2O[C@H]1CN(C)C(=O)CN(C)C` was tested, and the relative growth was inactive: 0.968. With `C[C@@H]1CN([C@H](C)CO)C(=O)c2cc(NC(=O)C3CCCCC3)ccc2O[C@@H](C)CCCCO[C@H]1CN(C)C(=O)CCC(F)(F)F` the relative growth was inactive: 0.998. For `C[C@@H]1CN([C@H](C)CO)C(=O)Cc2cc(NS(=O)(=O)c3ccc(F)cc3)ccc2O[C@@H]1CN(C)S(=O)(=O)c1ccccc1`, the relative growth was inactive: 0.989. `Cc1c(C)c2c(c(C)c1O)CCC(C)(CCCC(C)CCCC(C)CCCC(C)C)O2` (stereo not drawn) [alpha-TOCHOPHEROL [4 mM]] was tested, and the relative growth was inactive: 1.11. For `CNC[C@H]1OCCCC[C@@H](C)Oc2ccc(NC(=O)CCCN(C)C)cc2C(=O)N([C@H](C)CO)C[C@@H]1C`, the relative growth was inactive: 0.986. In the case of `CC(C)N1C[C@@H](CN(C)CCc2ccc(Cl)c(Cl)c2)Oc2c(NC(=O)c3ccncc3)cccc2C1=O`, the relative growth is reported as inactive: 1.01. In the case of `C[C@H]1CCCCO[C@@H](CN(C)S(=O)(=O)c2ccc(Cl)cc2)[C@@H](C)CN([C@@H](C)CO)C(=O)c2cc(NC(=O)CCC(F)(F)F)ccc2O1`, the relative growth is reported as inactive: 1. With `C[C@H]1CN([C@@H](C)CO)C(=O)c2cc(NC(=O)CCC(F)(F)F)ccc2O[C@@H]1CN(C)S(=O)(=O)c1cn(C)cn1` the relative growth was inactive: 1. For `COc1ccc(S(=O)(=O)N[C@@H]2C=C[C@H](CC(=O)N3CCC(Cc4ccccc4)CC3)O[C@@H]2CO)cc1`, the relative growth was inactive: 1.03. In the case of `CN(C)CC(=O)N[C@@H]1C=C[C@@H](CC(=O)O)O[C@@H]1CO`, the relative growth is reported as inactive: 0.986. For `C[C@H]1CCCCO[C@@H](CN(C)CC2CCCCC2)[C@@H](C)CN([C@@H](C)CO)C(=O)c2cc(NC(=O)Nc3ccc(C(F)(F)F)cc3)ccc2O1`, the relative growth was inactive: 1.01. For `CCCCCCCCCCC/C=C\C/C=C\CCCC(=O)O`, the relative growth was inactive: 0.895. For `C[C@@H]1CCCCO[C@H](CN(C)S(=O)(=O)c2ccc(Cl)cc2)[C@H](C)CN([C@H](C)CO)C(=O)c2cc(NC(=O)C3CCCCC3)ccc2O1`, the relative growth was inactive: 1.03. In the case of `COCC(=O)Nc1ccc2c(c1)C(=O)N(C)C[C@H](OC)[C@@H](C)CN(C(=O)c1ccccc1F)[C@H](C)CO2`, the relative growth is reported as inactive: 1.01. For `O=C(NCCCN1CCOCC1)[C@@H]1[C@@H](CO)[C@@H]2Cn3c(ccc(C4=CCCCC4)c3=O)[C@H]1N2`, the relative growth was inactive: 0.997. `C[C@H](CO)N1C[C@H](C)[C@H](CN(C)S(=O)(=O)c2cccs2)Oc2ccc(NC(=O)C3CC3)cc2CC1=O` was tested, and the relative growth was inactive: 0.984. In the case of `C[C@@H]1CCCCO[C@H](CN(C)S(=O)(=O)c2cn(C)cn2)[C@@H](C)CN([C@@H](C)CO)C(=O)c2cc(NS(=O)(=O)c3cn(C)cn3)ccc2O1`, the relative growth is reported as inactive: 1.01. `COc1ccc(NC(=O)Nc2ccc3c(c2)CC(=O)N([C@@H](C)CO)C[C@@H](C)[C@H](CN(C)S(=O)(=O)c2c(C)noc2C)O3)cc1` was tested, and the relative growth was inactive: 0.922. `C[C@H](CO)N1C[C@H](C)[C@@H](CN(C)CC2CC2)OCCCC[C@H](C)Oc2ccc(NC(=O)Nc3cccc4ccccc34)cc2C1=O` was tested, and the relative growth was inactive: 0.991. In the case of `C/C=C/c1ccc2c(c1)O[C@H](CN(C)S(=O)(=O)c1ccc(C)cc1)[C@H](C)CN([C@H](C)CO)S2(=O)=O`, the relative growth is reported as inactive: 1.01. In the case of `CSc1sc(C)cc1/C=N/O`, the relative growth is reported as inactive: 1.01. For `C[C@H]1CN([C@@H](C)CO)C(=O)c2ccccc2-c2ccccc2CO[C@H]1CN(C)C(=O)Nc1ccccc1C(F)(F)F`, the relative growth was inactive: 0.933. `COC(=O)c1c(C(=O)OC)c2n(c(=O)c1-c1ccccc1)[C@@H]1c3ccccc3O[C@@](COCc3ccc(OC)cc3)([C@@H]1COC(=O)c1ccccc1)N2C` was tested, and the relative growth was inactive: 1.08. With `CCN1CC2(CCN(C(=O)[C@H]3CCC(=O)N3)CC2)COc2ccccc2S1(=O)=O` the relative growth was inactive: 0.999. In the case of `Cc1noc(C)c1NC(=O)Nc1ccc2c(c1)C(=O)N([C@@H](C)CO)C[C@H](C)[C@@H](CN(C)S(=O)(=O)c1ccc(Cl)cc1)OCCCC[C@H](C)O2`, the relative growth is reported as inactive: 0.991. With `COCC(=O)Nc1ccc2c(c1)C(=O)N(C)C[C@H](OC)[C@@H](C)CN(Cc1cccc(F)c1)[C@@H](C)CO2` the relative growth was inactive: 0.976. `COc1ccc(C#Cc2ccc3c(c2)[C@]2(C(=O)N3)[C@H](c3ccc(OCCO)cc3)N3[C@H](c4ccccc4)[C@H](c4ccccc4)OC(=O)[C@H]3[C@@H]2C(=O)N2CCN(c3ncccn3)CC2)cc1` was tested, and the relative growth was inactive: 1.08. With `C[C@H]1CCCCO[C@@H](CN(C)C(=O)C2CCCCC2)[C@@H](C)CN([C@@H](C)CO)C(=O)c2cc(NC(=O)Nc3ccc(F)cc3)ccc2O1` the relative growth was inactive: 0.99.
